The text below walks through data of PubChem BioAssay (NCATS).

Several values for one entry are separate records, joined by “and”; a condition that tells them apart may be missing. Identical values can stand only once. The list shows a part of the results. The main result of the screen is listed elsewhere. These columns were measured beside it and carry no call. The note in brackets gives the kind of curve behind each potency; many fits are weak.

Usually AC50 stands for the concentration giving half of the maximal activity seen.
Tags describe the fitted curve by direction and shape.

The first assay in a line: qHTS drug screen for cell cycle checkpoint inhibitors in PARPi-resistant BRCA-mutant ovarian cancer cell lines. (AID 1963452). Particulars: PEO1/OlaR viability, CellTiter-Glo luminescence, 96 h; measured here: PEO1 parental viability. The method in brief:
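PEO1, PEO4 and PEO1/OlaR ovarian cancer cells, 600 per well, exposed 96 h at 37C to a dilution series. Viability read by CellTiter-Glo luminescence, normalized to DMSO and empty wells; activity summarized as Z-AUC.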
On the technique in general: Quantitative high-throughput screening tests each substance at several concentrations.
Take `N=C1CCCN1Cc1[nH]c(=O)[nH]c(=O)c1Cl`: the AC50 was 1.1 µM [rising, full curve, poor fit].

In the case of `COC(=O)C1=C(C)NC(c2ncc(F)cc2F)=N[C@H]1c1ccc(F)cc1Cl`, the AC50 is 0.049 µM [falling, full curve, poor fit].

On to `Cc1nc(NC(=O)N2CCC[C@H]2C(N)=O)sc1-c1ccnc(C(C)(C)C(F)(F)F)c1`, for which the AC50 was 12.3 µM [falling, partial curve] and 13.8 µM [falling, partial curve].

`CC(C)NCCCn1c(Sc2cc(Cl)cc(Cl)c2)nc2c(N)ncnc21`: the concentration at half-maximal activity (AC50) was 0.0616 µM [falling, full curve].

Consider `OC(c1ccc(-c2ccc(CN3CCN(Cc4ccncc4)CC3)cc2)c(F)c1)(C(F)(F)F)C(F)(F)F`, for which the AC50 is 0.11 µM [falling, full curve, poor fit].

For `C[C@H](CN(C)C)Oc1nc(Nc2cc3cccc(Cl)c3cn2)cnc1C#N`, the concentration at half-maximal activity (AC50) is 3.89 µM [falling, partial curve].

Take `Cc1ccc(S(=O)(=O)Nc2cc(C(F)(F)F)ccc2C(=O)Nc2nc(-c3ccccc3)cs2)cc1`: the AC50 was 9.77 µM [falling, partial curve].

For the molecule `C[C@H]1C[C@@H](n2c(Nc3ccc(OC(F)(F)F)cc3)nc3cc(CCC(=O)O)ccc32)CC(C)(C)C1`, the AC50 is 15.5 µM [falling, single point].

Regarding `Cc1ncc(Cl)cc1NCc1ccc(C(=O)NC(CC2CCCC2)C(=O)NC2CC2)s1` (stereo unspecified), the half-maximal activity concentration (AC50) is 19.5 µM [rising, single point].

For `CCS(=O)(=O)N1CCC(C(C)n2c(C)c(C(=O)NCc3c(OC)cc(C)[nH]c3=O)c3ccccc32)CC1` (stereo unspecified), the AC50 is 6.92 µM [rising, partial curve, poor fit].

For `CN(NC(=O)CC(=O)NN(C)C(=S)c1ccccc1)C(=S)c1ccccc1`, the half-maximal activity concentration (AC50) is 0.219 µM [rising, full curve, poor fit].

As to `CC(=O)O/N=C1\C(=O)N(Cc2cc(Cl)ccc2Cl)c2ccc(Cl)cc21`, the concentration at half-maximal activity (AC50) was 15.5 µM [falling, single point].

For the molecule `COCCOc1ccc(N2CCN(CCn3ncc4c3nc(N)n3nc(-c5ccco5)nc43)CC2)cc1`, the AC50 was 6.16 µM [rising, partial curve].

Regarding `CC(C)[C@@H](CS(=O)(=O)C(C)C)N1C(=O)[C@@](C)(CC(=O)O)C[C@H](c2cccc(Cl)c2)[C@H]1c1ccc(Cl)cc1`, the half-maximal activity concentration (AC50) is 12.3 µM [falling, partial curve, poor fit].

For the molecule `Cc1ccc(NC(=O)c2ccc(CN3CCNCC3)cc2)cc1Nc1nccc(-c2cccnc2)n1`, the concentration at half-maximal activity (AC50) is 1.55 µM [falling, partial curve, poor fit].

Regarding `O=C(NCC(=O)N1CC[C@H](NC2CCC(O)(c3ccc(-c4ncccn4)cn3)CC2)C1)c1cccc(C(F)(F)F)c1` (stereo partly specified), the concentration at half-maximal activity (AC50) was 0.436 µM [rising, single point].

In the case of `O=c1ncn2nc(Sc3ccc(F)cc3F)ccc2c1-c1c(Cl)cccc1Cl`, the half-maximal activity concentration (AC50) is 17.4 µM [falling, partial curve, poor fit].

In the case of `O=C(O)c1nc(=O)[nH]c(=O)[nH]1`, the concentration at half-maximal activity (AC50) is 0.0239 µM [falling, full curve, poor fit].

With `C[C@@H]1C[C@H](N)C[C@H](c2ccncc2NC(=O)c2ccc(F)c(-c3c(F)cccc3F)n2)C1`, the AC50 is 13.8 µM [falling, partial curve].

For the molecule `Cc1cnc(NC(=O)c2cc(Oc3cnc(C(=O)N(C)C)nc3)c3cc(C)oc3c2)cn1`, the AC50 is 0.0219 µM [falling, full curve, poor fit].

Turning to `COc1cc2c(cc1OCCCN1CCCC1)N=C(N)C21CCC1`, the AC50 was 27.5 µM [rising, partial curve, poor fit].

Take `O=C(Nc1ncc(SCCN2CCCC2)s1)[C@]1(c2ccc(S(=O)(=O)C3CC3)cc2)C[C@H]1C1CCCCC1`: the AC50 was 19.5 µM [falling, single point].

Regarding `CC(C)(O)CS(=O)(=O)Nc1ccc2c(c1)CCN(C(=O)COc1cccnc1)C2`, the half-maximal activity concentration (AC50) was 0.0195 µM [falling, full curve].

For `COc1cc(Nc2ncc(F)c(Nc3ccc4c(n3)N(COP(=O)(O)O)C(=O)C(C)(C)O4)n2)cc(OC)c1OC`, the concentration at half-maximal activity (AC50) is 15.5 µM [falling, single point].

For `Cc1ccccc1C(C(=O)NC1CCCCC1)N(C(=O)CNc1ccc(C#N)cc1)c1cccc(F)c1` (stereo unspecified), the concentration at half-maximal activity (AC50) is 21.9 µM [rising, single point].

With `CCCNS(=O)(=O)Nc1ncnc(OCCOc2ncc(Br)cn2)c1-c1ccc(Br)cc1`, the AC50 was 0.616 µM [rising, partial curve, poor fit].

Still in this assay, the particulars now being: PEO1/OlaR viability, CellTiter-Glo luminescence, 96 h; measured here: PEO4 viability.
Regarding `Cc1nc(NC(=O)N2CCC[C@H]2C(N)=O)sc1-c1ccnc(C(C)(C)C(F)(F)F)c1`, the AC50 was 12.3 µM [falling, partial curve, poor fit] and 6.92 µM [falling, partial curve].

As to `O=C(O)c1ccc(O)c2ncccc12`, the AC50 is 27.5 µM [falling, single point].

Regarding `C[C@H](CN(C)C)Oc1nc(Nc2cc3cccc(Cl)c3cn2)cnc1C#N`, the AC50 is 1.23 µM [falling, full curve].

For `Cc1ccc(S(=O)(=O)Nc2cc(C(F)(F)F)ccc2C(=O)Nc2nc(-c3ccccc3)cs2)cc1`, the half-maximal activity concentration (AC50) was 0.871 µM [falling, full curve].

Regarding `CC(/C=C/[C@@H]1C[C@]1(C)c1ccc2c(c1)C(C)(C)CCC2(C)C)=C\C(=O)O`, the AC50 is 15.5 µM [falling, partial curve].

`NS(=O)(=O)NCCNc1nonc1C(=Nc1ccc(F)c(Br)c1)NO`: the AC50 is 5.49 µM [falling, partial curve, poor fit].

Turning to `C/C=C/C/C=C/CCC(=O)[C@H]1O[C@H]1C(N)=O`, the AC50 is 24.5 µM [falling, single point].

Turning to `C[C@H]1C[C@@H](n2c(Nc3ccc(OC(F)(F)F)cc3)nc3cc(CCC(=O)O)ccc32)CC(C)(C)C1`, the AC50 is 27.5 µM [falling, single point].

As to `CC(=O)O/N=C1\C(=O)N(Cc2cc(Cl)ccc2Cl)c2ccc(Cl)cc21`, the AC50 is 13.8 µM [falling, single point].

Regarding `CC[C@H](NC(=O)[C@H](C)NC)C(=O)N1C[C@@H](O)C[C@H]1Cc1c(-c2[nH]c3cc(F)ccc3c2C[C@@H]2C[C@H](O)CN2C(=O)[C@H](CC)NC(=O)[C@H](C)NC)[nH]c2cc(F)ccc12`, the half-maximal activity concentration (AC50) is 6.16 µM [falling, full curve, poor fit].

With `CC(C)[C@@H](CS(=O)(=O)C(C)C)N1C(=O)[C@@](C)(CC(=O)O)C[C@H](c2cccc(Cl)c2)[C@H]1c1ccc(Cl)cc1`, the concentration at half-maximal activity (AC50) was 15.5 µM [falling, single point].

Regarding `CC(=O)Nc1ccc(C(=O)Nc2ccccc2N)cc1`, the AC50 is 13.8 µM [falling, single point].

Take `Cn1c(=O)c2c(ncn2CC2OCCO2)n(C)c1=O`: the half-maximal activity concentration (AC50) is 0.0389 µM [rising, full curve].

With `Cc1ccc(NC(=O)c2ccc(CN3CCNCC3)cc2)cc1Nc1nccc(-c2cccnc2)n1`, the AC50 was 21.9 µM [falling, single point].

Turning to `Cc1c(F)ccc(C(=O)Nc2cc([N+](=O)[O-])ccc2N2CCN(C)CC2)c1Cl`, the half-maximal activity concentration (AC50) is 0.0039 µM [rising, full curve, poor fit].

For the molecule `CCNCc1nc2c(N)nc3ccccc3c2n1CC(C)(C)O`, the AC50 is 13.8 µM [falling, partial curve].

For the molecule `C[C@@H]1C[C@H](N)C[C@H](c2ccncc2NC(=O)c2ccc(F)c(-c3c(F)cccc3F)n2)C1`, the AC50 was 21.9 µM [falling, partial curve].

Consider `N#Cc1ccnc(N2C(=O)CC[C@H]2C(=O)N(c2cncc(F)c2)C(C(=O)NC2CC(F)(F)C2)c2ccccc2Cl)c1` (stereo partly specified), for which the concentration at half-maximal activity (AC50) is 0.0069 µM [rising, full curve, poor fit].

`O=C(O)[C@H](Cc1c[nH]c2ccccc12)N1C(=O)c2ccccc2C1=O`: the AC50 is 24.5 µM [falling, single point].

Take `O=C(Nc1ncc(SCCN2CCCC2)s1)[C@]1(c2ccc(S(=O)(=O)C3CC3)cc2)C[C@H]1C1CCCCC1`: the AC50 is 24.5 µM [falling, single point].

`CC(C)(O)CS(=O)(=O)Nc1ccc2c(c1)CCN(C(=O)COc1cccnc1)C2`: the AC50 was 0.0155 µM [falling, full curve].

Turning to `CC(=O)NCCCS(=O)(=O)O`, the half-maximal activity concentration (AC50) is 2.68 µM [rising, partial curve, poor fit].

As to `COc1cc(Nc2ncc(F)c(Nc3ccc4c(n3)N(COP(=O)(O)O)C(=O)C(C)(C)O4)n2)cc(OC)c1OC`, the half-maximal activity concentration (AC50) is 15.5 µM [falling, partial curve].

For the molecule `Cc1noc(C)c1-c1ccc(-c2cc(C(N)=O)c(NC(N)=O)s2)c(O[C@H]2CCNC2)c1`, the AC50 is 27.5 µM [falling, single point].

Consider `Nc1nc(OC(c2ccc(-c3cccc(F)c3)cc2)C(F)(F)F)cc(-c2ccc(C[C@H](N)C(=O)O)cc2)n1` (stereo partly specified), for which the AC50 was 24.5 µM [falling, partial curve, poor fit].
